Measurements published in PubChem BioAssay AID463173 (ICCB-Longwood Screening Facility, Harvard Medical School, 2010).
Hit rate of the full screen: of about 52,000 compounds, about 1,700 (3.3%) were called active. Rule as the data show it: active = survival mostly below about 52% (no sharp cut-off); inactive = mostly above about 56%. Some of the results follow.

System: Wild type
Experiment: S. aureus survival, RN4220 and DeltatarO strains – OD600, teichoic acid synthesis inhibitors, primary screen (AID 463173)
Conditions: S. aureus RN4220 wild type/DeltatarO growth, OD600, 18 h, active compounds read low, screened at 18.75 µg/mL (by protocol)

Row | Compound | survival
1 | CCCNC(=O)N1CCC(c2ccc3c(c2)OCO3)CC1 | inactive: 107%
2 | CCC(=O)N1CCc2cc(S(=O)(=O)NC(CC(C)C)C(=O)NCc3ccc(C)cc3)ccc21 (stereo not given) | inactive: 108%
3 | Cc1ccc(O)c(-c2n[nH]c3c2C(c2ccccc2F)N(Cc2ccco2)C3=O)c1 (stereo not given) | active: 11%
4 | CCc1nn(CC(=O)N2CCN(c3cccc(C)c3C)CC2)c(=O)c2cc3sccc3n12 | inactive: 128%
5 | COc1cccc(CNC(=O)CCS(=O)(=O)c2ccc3c(c2)CC(C)N3C(=O)C2CC2)c1 (stereo not given) | active: -3%
6 | Cc1cc2[nH]c(=O)c(=O)[nH]c2cc1S(=O)(=O)Nc1cccc(C(F)(F)F)c1 | inactive: 89%
7 | Cc1sc2ncn(CC(=O)N3CCN(c4ccc(F)cc4)CC3)c(=O)c2c1S(=O)(=O)N1CCN(c2ncccn2)CC1 | inactive: 84%
8 | CCCCN(C)C(=O)Cn1cnc2sc(C)c(S(=O)(=O)N3CCN(c4ccccc4OC)CC3)c2c1=O | inactive: 85%
9 | CNC(=O)c1ccc(NC(=O)COc2ccc(-c3nn(C)c(=O)c4ccccc34)cc2)cc1 | inactive: 84%
10 | CC(Cc1c[nH]c2ccccc12)NC=O (stereo not given) | inactive: 119%
11 | Cc1ccccc1NC(=O)Nc1cccs1 | inactive: 87%
12 | Cc1ccc(OCC(=O)N(Cc2sccc2C)C2CCS(=O)(=O)C2)cc1 (stereo not given) | inactive: 115%
13 | Cc1cc(=O)n2nc(N3CCC(C(=O)NCc4ccc(Cl)cc4)CC3)sc2n1 | inactive: 109%
14 | Cc1ccc2onc(CC(=O)N3CCN(c4cccc(C)c4C)CC3)c2c1 | inactive: 74%
15 | CCOC(=O)c1[nH]c2ccccc2c1NC(=O)c1cc(OCC)c(OCC)c(OCC)c1 | inactive: 113%
16 | COc1ccc(-c2noc(CSc3nnc(-c4ccncc4)n3-c3ccc(C)c(C)c3)n2)cc1 | inactive: 74%
17 | Clc1ccc(Nc2nc(-c3ccccc3)c3cc(Cl)ccc3n2)cc1 | inactive: 79%
18 | CCc1ccc2[nH]c(=O)c(CN(Cc3ccccc3)Cc3nnnn3C3CCCC3)cc2c1 | inactive: 114%
19 | CCOc1ccc(NC(=O)Cn2c(CCC(=O)O)ccc2-c2ccc(C)cc2)cc1 | inactive: 89%
20 | CC(C)(C)c1cc(N=NC(=O)c2ccco2)cc(C(C)(C)C)c1O | inactive: 108%
21 | Cc1ccccc1C(=O)Nc1cccc(C(=O)OCc2cc(=O)n3nc(C4CC4)sc3n2)c1 | inactive: 55%
22 | COc1cc(NC(=O)CC(C)S(=O)(=O)c2cc3c4c(c2)CCN4C(=O)CC3)cc(OC)c1 (stereo not given) | inactive: 76%

Row | Compound | survival
23 | CCOc1ccc(C(=O)CSc2nc3c(c(=O)n(C)c(=O)n3C)n2C(C)C)cc1 | inactive: 105%
24 | O=C(Cn1nc(-c2ccc3c(c2)OCCO3)ccc1=O)Nc1cccc2cccnc12 | inactive: 102%
25 | COc1ccc(Cn2c(CO)cnc2SCC(=O)NCc2ccco2)cc1 | active: -6%
26 | Cc1ccc(C)c(CN2C(=O)c3ccccc3Sc3ccc(C(=O)NCc4ccc5c(c4)OCO5)cc32)c1 | inactive: 72%
27 | Cc1ccc([N+](=O)[O-])cc1S(=O)(=O)N1CCn2cccc2C1c1ccc(F)c(F)c1 (stereo not given) | inactive: 69%
28 | COc1cc2nc(SCC(=O)Nc3cccc(C)c3)n3nc(-c4ccccc4)nc3c2cc1OC | inactive: 82%
29 | COc1ccc(NC(=O)c2c(NC(=O)c3cccc(C)c3)sc3c2CCCC3)cc1 | inactive: 86%
30 | CCCn1c(N2CCN(C(=O)/C=C/C(=O)O)CC2)nc2ccccc21 | inactive: 114%
31 | CC(=O)c1cccc(NC(=O)c2ccc3nc(C(C)C)oc3c2)c1 | inactive: 78%
32 | COc1ccc(-c2nc(Cn3c(SCc4ccc(F)cc4)nc4cccnc43)c(C)o2)cc1 | inactive: 78%
33 | COc1ccc(CNC(=O)C(OC(=O)c2cc3sccc3n2C(C)C)C(C)C)cc1 (stereo not given) | inactive: 131%
34 | CC(C)(CO)NC(=O)C1CC(c2c(F)cccc2Cl)=NO1 (stereo not given) | inactive: 114%
35 | CCOC(=O)c1cc(-c2ccc(OC)cc2)nn1Cc1ccccc1 | active: 10%
36 | Cc1ccc(CSc2nc3c(c(=O)[nH]2)C(c2cccc(F)c2F)CC(=O)N3)cc1 (stereo not given) | inactive: 108%
37 | Cc1ccc(C)c(Nc2nnc(-c3ccc(C)c(S(=O)(=O)N4CCCCC4)c3)c3ccccc23)c1 | inactive: 114%
38 | COc1ccc(N2CCN(C(=O)c3nn(-c4ccc(C)cc4)c(=O)n(C)c3=O)CC2)cc1 | inactive: 70%
39 | CC(C)c1ccc(NC(=O)C(Cc2ccccc2)NS(=O)(=O)c2ccc3c(c2)CCC(=O)N3)cc1 (stereo not given) | inactive: 91%
40 | COc1cccc(CNC(=O)CN(C)S(=O)(=O)c2ccc3c(c2)c(=O)n(C)c(=O)n3C)c1 | inactive: 80%
41 | Cn1nnnc1SCCNCc1ccccc1Cl | inactive: 70%
42 | COc1cc2ncc3c(-c4ccccc4)nn(-c4ccc(C)cc4)c3c2cc1OC | inactive: 60%
43 | Cc1ccc(OCC(=O)Nc2ccc3nc(SCC(=O)N(C)c4ccccc4)sc3c2)cc1 | inactive: 79%
44 | N#C/C(=C\c1ccc(-c2ccc(C(=O)O)cc2)o1)c1nc2ccccc2[nH]1 | inactive: 110%

Row | Compound | survival
45 | COc1ccc(Cl)cc1NC(=O)Cn1cc(S(=O)(=O)Cc2cccc(Cl)c2)c2ccccc21 | inactive: 92%
46 | CCC1Oc2ccc(C)cc2N(CC(=O)Nc2ccc3c(c2)OCCO3)C1=O (stereo not given) | inactive: 104%
47 | CCc1ccccc1Nc1nn2c(=O)c3ccc(C(=O)NCc4ccccc4Cl)cc3nc2s1 | inactive: 95%
48 | Cn1c(=O)oc2cc(S(=O)(=O)N3CCC(C(=O)N4CCN(c5cccc(Cl)c5)CC4)CC3)ccc21 | inactive: 140%
49 | CCOc1ccc(CCNC(=O)c2ccc(CS(=O)Cc3ccc(Cl)cc3)o2)cc1 (stereo not given) | inactive: 69%
50 | CCCCOc1ccc(C(=O)N(Cc2nc(-c3ccc(Cl)cc3)no2)C(C)C)cc1 | inactive: 85%
51 | COc1ccc(CC(=O)NCCc2sc(-c3cccc(F)c3)nc2C)cc1 | inactive: 86%
52 | Cc1ccc(Cn2c(C)c(CNCc3ccc(OC(C)C)cc3)c(C(=O)O)c2C)cc1 | inactive: 147%
53 | CC(=O)N1CCc2cc(Br)cc(S(=O)(=O)CCC(=O)NCCc3ccc(Cl)cc3)c21 | inactive: 67%
54 | CN1CCc2c(sc3c2C(=O)NC(c2ccc(OC(=O)c4ccc(Cl)cc4)cc2)N3)C1 (stereo not given) | inactive: 75%
55 | COc1ccc(C(=O)Nc2ccc3oc(-c4cccc5c(Br)cccc45)nc3c2)cc1 | inactive: 86%
56 | CCN1CCc2c(sc(NC(=O)c3ccc(S(=O)(=O)N4CCCC(C)C4)cc3)c2C(=O)OC)C1 (stereo not given) | inactive: 71%
57 | O=C(CNC(=O)c1ccc(F)cc1)OCc1cc(=O)n2ccsc2n1 | inactive: 58%
58 | O=S1(=O)c2ccccc2N(Cc2ccccc2F)c2ccccc21 | inactive: 101%
59 | CCCCN(C)C(=O)c1ccc2c(=O)n3nc(Nc4cc(C)ccc4C)sc3nc2c1 | inactive: 140%
60 | Cc1c(Cl)cccc1NC(=O)C(=O)NCCc1csc(-c2ccc(C(F)(F)F)cc2)n1 | inactive: 47%
61 | Cc1ccccc1Cn1c(CN2CCC(C(=O)NCc3ccc(Cl)cc3)CC2)cc2ccccc21 | inactive: 60%
62 | Cc1cc(C(C)(C)C)oc1C(=O)O | inactive: 103%
63 | Cc1cc(C)c(OCC(=O)N(Cc2ccc(N(C)C)cc2)Cc2ccco2)c(C)c1 | inactive: 82%
64 | O=C(NCc1ccc2c(c1)OCO2)c1ccc2c(c1)N(Cc1c(F)cccc1Cl)C(=O)c1ccccc1S2 | inactive: 84%
65 | Cc1cc(C)cc(NC(=O)COc2cccc3c(=O)n(C)ccc23)c1 | inactive: 72%
66 | COc1ccc(CCNC(=O)c2ccc(-n3c(C)cc4c3CCC(C)C4)cc2)cc1OC (stereo not given) | inactive: 64%

Row | Compound | survival
67 | COc1ccc(C(=O)c2cn(CC(=O)Nc3cc(OC)cc(OC)c3)c3ccc(OC)cc3c2=O)cc1 | inactive: 88%
68 | COC(=O)c1ccccc1NC(=O)Cn1c(=O)n(CCC(=O)NCc2ccc3c(c2)OCO3)c(=O)c2ccccc21 | inactive: 100%
69 | Cc1ccc(Cn2nc3n(c2=O)-c2cc(Cl)ccc2OC3)cc1 | inactive: 76%
70 | COc1ccc(-n2c(-c3cccc(F)c3)nc3c(cnn3-c3ccc(C)cc3)c2=O)cc1 | inactive: 117%
71 | Cc1ccc(-c2csc(-c3c(N)c(C(=O)c4ccc5c(c4)OCO5)n4ccccc34)n2)cc1 | inactive: 103%
72 | Cc1ccc(-c2cn3nc(N4CCCC(C(=O)NCc5ccccc5F)C4)sc3n2)cc1 (stereo not given) | inactive: 71%
73 | CC1=C(C(=O)OC2CCCC2)C(c2c(F)cccc2Cl)CC(=O)N1 (stereo not given) | inactive: 87%
74 | CS(=O)(=O)N1CCC(C(=O)NC2CCCCC2)CC1 | inactive: 107%
75 | CCOC(=O)c1c(S(=O)(=O)N2CCC(C(=O)NCc3cccc(OC)c3)CC2)c(C)n(C)c1C | inactive: 68%
76 | Cn1ccnc1SCC(=O)Nc1cccc(Br)c1 | inactive: 71%
77 | COc1cccc(N2C(=O)C(CC(=O)Nc3cccc(F)c3)N(C3CCCC3)C2=O)c1 (stereo not given) | inactive: 124%
78 | Cc1ccc(CC2CC(=O)N(C3CCCCC3)C2=O)cc1 (stereo not given) | inactive: 114%
79 | Cc1cccc(N(C)C(=O)Cn2c(=O)oc3cc(S(=O)(=O)N4CCCCC4)ccc32)c1 | inactive: 76%
80 | COc1ccc(-c2nc3ccccc3o2)cc1NC(=O)Cc1ccc(Cl)cc1 | inactive: 68%
81 | Cc1ccc(CNC(=O)c2ccc3c(c2)CCN3S(=O)(=O)c2ccc(Br)cc2)cc1 | inactive: 90%
82 | S=c1nc(-c2csc3c2CCCC3)[nH][nH]1 | inactive: 101%
83 | COc1ccc(C2CC(=O)c3cc(-c4nc(-c5cccc([N+](=O)[O-])c5)cs4)c(=O)n(-c4ccccc4N)c3C2)cc1 (stereo not given) | inactive: 154%
84 | Cc1nc2ccn(Cc3ccco3)c(=O)c2cc1C(=O)NCc1ccc(Cl)cc1 | inactive: 60%
85 | NC(=O)c1cc(S(=O)(=O)NCc2cccc(Br)c2)cs1 | inactive: 77%
